Test results from the RNAGym collection of RNA variant scans (doi:10.7554/elife.90254).
The source gives no read counts; variants with many changes may rest on few reads.

B1: LINE1-mini (parent)
chain: GGCAGAGCUCAACACAGCGUGGCAAAGUGGCUGUGGCUAGACUGCC

Variants of: B1
Test: self-cleavage, relative activity (ratio to wild type); higher = more cleavage; in vitro, sequencing; the parent is a self-cleaving ribozyme

Row | Variant | self-cleavage
1 | A4C A24U G30U | 0.37
2 | G1U G19A C45G C46U | 0.24
3 | A16G A26G G40U | 0
4 | C3G C18U U28A | 0.13
5 | G2U A12U G22A C31G | 0.01
6 | C3G C8A U9C C10A G36A | 0.1
7 | C3G A4C C8U A12U C15U A26U G30A G36U | 0.05
8 | C10U G19A G27U C37A A39U G40U | 0.02
9 | A6G C31A C46G | 0.01
10 | C8G G35U U38A | 0.07
11 | G19U G29A G36A | 0.3
12 | A4C C10A C15G C18G | 0.07
13 | U9A A11G U32A A41U | 0.02
14 | G5C A12C G19U C37U U38A | 0.01
15 | G27A G33A G35A A41U | 0.02
16 | G29U U34C G36U | 0.08
17 | A16C G17U C31G G36U | 0.02
18 | A14U C18U G19A | 0.12
19 | C10G C13A C15A G17U | 0.01
20 | A16G G17C G22U G36U C42U | 0
21 | G2C A12G C37G | 0.04
22 | U9A G29A G30U U32A G40C C45U | 0.28
23 | G1C C8A C23U | 0.07
24 | C8U U9G C13A G17U A25C | 0.06

Row | Variant | self-cleavage
25 | G5C G44A C46A | 0.04
26 | A11G A24C G33U | 0.01
27 | G5A G22C C23A A26C U38C A39U C46G | 0.03
28 | A11U G40A C42A | 0.02
29 | C3A G22C A26G G30A C31G U34A | 0.06
30 | C3G U9G G27U | 0.11
31 | G2A G22U G29U U38G | 0.04
32 | G5U A11C G17C C23A G30A | 0.01
33 | A16G G22C G36C | 0.01
34 | A12C A26G A41U | 0
35 | A4U A6G U20A G33U | 0.12
36 | C15A C23U G30C | 0.09
37 | G2A A6C A11C U34A | 0
38 | A11C G21A G27A G44C | 0.02
39 | C8A C10A G21A C42A | 0.35
40 | C10G G27U G44A | 0.03
41 | A6C A12G G35A | 0.03
42 | G7A G27U G33A | 0.07
43 | C8G A11C C15G A41C | 0.01
44 | G7U U9A C15A C31A | 0.16
45 | U20A G22A A25G | 0.93
46 | G5C U28A C31G A41C | 0.02
47 | C13U A16G U28A C31G | 0.01
48 | C3G U9C A12G | 0.03

Row | Variant | self-cleavage
49 | G2A G33U U38C A41U | 0.16
50 | G19U U28G G33A C42G | 0.03
51 | A14U G19C U28A C42U G44C | 0.06
52 | A24U G29C C31U C37A | 0.01
53 | G2A C31U C45A | 0.11
54 | A11G G21U U34A A41G | 0.02
55 | A4G A25G G35C | 0.03
56 | A4C C10A C15U | 0.07
57 | C13G A14C A24C C42U G44C | 0.14
58 | A14G C15U G17U G29C G35A G44A | 0.04
59 | C10G C15U C37A | 0.03
60 | G2C A6G C8A C15A A24G U32C C37A | 0.03
61 | G30U G33A G35U C37G | 0.01
62 | A16G G22U U38A G40C | 0.01
63 | A11G C15A G40U | 0.02
64 | G2A C23G G27C G30U C37G | 0.01
65 | U32G A41C G44U C46G | 0.04
66 | A14C C18G U20G | 0
67 | A11C A14G G21C G33U G36U | 0.02
68 | A6G G27A C37G G40U U43G | 0.08
69 | G17A G33C U38A U43C | 0.03
70 | G5A C15U C23G A25G | 0.02
71 | G1U C10U U20A | 0.03
72 | A6U C13A G17A G19A A24G U28G C31G | 0.1

Row | Variant | self-cleavage
73 | C15U G21U G40U C46A | 0.1
74 | A11G A26C C46U | 0.02
75 | G22C U28C C37U | 0.02
76 | G1U A6U G21U A26C C42A | 0
77 | C8U A14G A39G | 0.07
78 | G2U C10A C18A G21C G27C | 0.01
79 | G22A A25U G29C A41C | 0.04
80 | C3U G17U G36A C37G | 0.05
81 | U38C A39C C45A | 0.06
82 | C10A A11G A16C G29A A39C | 0
83 | A14G G33A A39U G40U | 0.03
84 | G7A C8A C18G G22A | 0.15
85 | C8A C10U A14C A41C | 0.02
86 | G7A C8U G35C | 0.04
87 | G7A C15G C37A A41G G44U C45A | 0.07
88 | U9A C10A A14G | 0.04
89 | C10U G27C U38A | 0.05
90 | C10A C18G C23U | 0.03
91 | C13G A16U G21C G36C C42G | 0.02
92 | C10U C15G G33U A39G | 0.02
93 | C18A G27C G35U G44C | 0.01
94 | G1U C13U C18U U20G U32A G35C G44U C45G C46A | 0.06
95 | G5U C13A C42U | 0.02
96 | A16G G19C A24U | 0.04

Row | Variant | self-cleavage
97 | C8G G35U A41U | 0.06
98 | G30C G35C G40A | 0.09
99 | A4C G5C G17A G29C G35A | 0.41
100 | G29U G40A G44A | 0.11
101 | C3U C10U U28A G40C | 0.02
102 | G7A G21U G27U | 0.1
103 | C3A A11G C13G U34C | 0.02
104 | G27C U34A G36U A41U | 0.08
105 | G5C U20C U32A C37A | 0.01
106 | C8G G27U G30C U38G G40U | 0.01
107 | G21U A24U U34C C46A | 0.2
108 | G1C G2U G22U A26G C31U C42A C46U | 0.01
109 | G5C G17U G19U A39G | 0.02
110 | A6C A24U G33C U34A G36A C46G | 0.03
111 | G7A G21A C31G G36C A41U | 0.04
112 | G7U C8U C13G | 0.77
113 | A11G U28C G30C C37A | 0
114 | A12G G27C C46U | 0.03
115 | C18U G22C A25U | 2.02
116 | G2C C3U G33C G35C C37G | 0.06
117 | A16U G27A G36U U43G | 0.02
118 | G22A C23U C31G | 0.04
119 | A6G C10A C15U C46A | 0.04
120 | G5A A6C G44U | 0.08

Row | Variant | self-cleavage
121 | U9C G30A U34G A41U | 0.01
122 | G1C G7A C46G | 0.07
123 | C8G C18A U20A G35C G44U | 0.03
124 | C13A U32G G44C | 0.05
125 | A4G G17U U20C U32A | 0.05
126 | G5A G29C G40C | 0
127 | A24U G33A G35C | 0.03
128 | C8A G21U G27U C31U U34G A41G | 0.11
129 | A4U A12G A16C G22C G30U | 0.02
130 | G7A G17U A25G | 0.04
131 | G19U C23G G44U C46A | 0
132 | C8A C15A C18A | 0.07
133 | G1A G17U C23A G44U | 0.04
134 | C15G G29A C31A U38G C46G | 0.01
135 | A12U C23A C42G | 0.05
136 | U9G A16G C23U | 0.12
137 | U9A G22C G30A A41U | 0.11
138 | G27C G36U A41U C42U | 0
139 | C10A A14C G17U G30U | 0
140 | G2U A24U A25G | 0.02
141 | C15U G40U C42U | 0.03
142 | A16C U28C A39U | 0.03
143 | C13A U28A C31A | 0.01
144 | G7A U28G G29U C31A G40C | 0.07

Row | Variant | self-cleavage
145 | G2A A26C C42A U43C | 0.44
146 | A4G C23U A24U A26G G27A | 0.11
147 | G29U G36A A39G | 0.11
148 | C10A A24G U28C C45U C46A | 0.02
149 | C8A A12U G19U G29U | 0.17
150 | A14C A26C C31U A41G U43A | 0
151 | C3G C10A G35A | 0.03
152 | C15A A24G G30C G35C | 0.03
153 | G1C C10A G40A A41C | 0
154 | U9A C15U U20C U32G C37G A41G C42A | 0.12
155 | C10U A11G G40U | 0.01
156 | C3A C15G U34A | 0.01
157 | A11U A16G U34G | 0.04
158 | G19C G29U C45U | 0.68
159 | C10A G36C G44U | 0.03
160 | G19U C23U C42U | 0.04
161 | G19A C31U C42U | 0.12
162 | G17A A24C G30U | 0.07
163 | A6G C18U U38G | 0
164 | A14U U28G U38C | 0.11
165 | A11U C18A G36U A41G | 0.02
166 | G1A A14G G17C G29U G33C | 0.03
167 | C13U U20A A24C C45G | 0.04
